Measured values from the BET-seq Pho4 binding data (Le et al. 2018).
The list shows a part of the results. Values were computed here from the reads of four pooled replicates and scatter widely.

Target: T1, Pho4 (S. cerevisiae) (UniProt P07270)
T1 sequence: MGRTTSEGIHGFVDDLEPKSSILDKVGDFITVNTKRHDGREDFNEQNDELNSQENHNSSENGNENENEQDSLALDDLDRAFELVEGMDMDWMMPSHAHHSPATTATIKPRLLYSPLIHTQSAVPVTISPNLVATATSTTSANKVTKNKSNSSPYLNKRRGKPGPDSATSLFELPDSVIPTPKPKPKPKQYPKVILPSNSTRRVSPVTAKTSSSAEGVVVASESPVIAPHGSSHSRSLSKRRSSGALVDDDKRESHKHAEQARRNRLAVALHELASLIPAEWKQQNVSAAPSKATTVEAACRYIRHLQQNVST
Assay: relative binding free energy (BET-seq); higher = weaker binding
Conditions: reference: library average

Sequence	relative binding free energy
ATCTGCACGTGTTGTA	-0.209 kJ/mol
AATGCCACGTGGTATG	-0.837 kJ/mol
GAATGCACGTGGAAGG	0.586 kJ/mol
TTGGTCACGTGGGCAC	0 kJ/mol
GGAGGCACGTGGAATT	0.711 kJ/mol
TGCAGCACGTGGGTTA	-1.42 kJ/mol
TAAAACACGTGGTAGT	-0.251 kJ/mol
GTTACCACGTGATGTG	0.251 kJ/mol
GTAATCACGTGGTTCA	0.92 kJ/mol
TGTTCCACGTGGTCTG	-0.335 kJ/mol
TCTTGCACGTGGTTTG	-0.586 kJ/mol
TTCGGCACGTGATGTA	-0.126 kJ/mol
ATTGACACGTGGGTTT	-0.46 kJ/mol
CGGATCACGTGTTTTT	0.879 kJ/mol
AGTGGCACGTGGCCGG	-1.09 kJ/mol
TTGATCACGTGATTTC	1.17 kJ/mol
ATTGGCACGTGGTGTA	-0.962 kJ/mol
GGTCGCACGTGGCAGG	-0.335 kJ/mol
ATGGTCACGTGCAGTG	0.293 kJ/mol
TCGGTCACGTGTATTA	-0.167 kJ/mol
ATGAACACGTGTTGGC	0.377 kJ/mol
GTAAGCACGTGGGTGC	-1.34 kJ/mol
GTTGACACGTGCGTGA	0.335 kJ/mol

Sequence	relative binding free energy
CGTTACACGTGATAGT	1.17 kJ/mol
TAGTGCACGTGTTATC	-0.0418 kJ/mol
AATGACACGTGTGTGG	0.502 kJ/mol
TGATCCACGTGGGTGT	-0.46 kJ/mol
TAGATCACGTGGTTCT	0.502 kJ/mol
GGTCGCACGTGTATTG	-0.628 kJ/mol
TTATCCACGTGTTGGT	-0.167 kJ/mol
TTGAACACGTGGGATA	-0.46 kJ/mol
TTTTCCACGTGAGGGT	1.46 kJ/mol
TTGCTCACGTGTGATT	1.8 kJ/mol
GGTGTCACGTGTGACT	0.669 kJ/mol
ATTATCACGTGGAGAT	0.251 kJ/mol
GCACGCACGTGGTTTG	0.167 kJ/mol
TGCGTCACGTGGAGTG	0.586 kJ/mol
TTCGCCACGTGTAGTG	0.418 kJ/mol
TGTTTCACGTGACATG	1.51 kJ/mol
CGTGCCACGTGTGAGT	-0.418 kJ/mol
GTGATCACGTGGTGAT	0.544 kJ/mol
TGGGGCACGTGGACTC	-0.167 kJ/mol
TGGGTCACGTGAAACG	1.17 kJ/mol
CGTTCCACGTGTATGG	0.251 kJ/mol
GTAATCACGTGTTAGT	0.92 kJ/mol
AATTTCACGTGGTCAG	0.628 kJ/mol

Sequence	relative binding free energy
TCAGGCACGTGGTCTG	-0.711 kJ/mol
ACTAGCACGTGGGGGC	-0.209 kJ/mol
TGTTTCACGTGTTTGT	1.21 kJ/mol
TATGTCACGTGGTCTT	-0.46 kJ/mol
TACGGCACGTGGTGGG	0.0418 kJ/mol
TTTTTCACGTGAATGG	1.88 kJ/mol
ACGAGCACGTGGGGTT	-0.837 kJ/mol
TGATACACGTGTGTTG	0.0418 kJ/mol
ATGGGCACGTGCCAGG	-1.38 kJ/mol
CATCTCACGTGGGGGG	0.418 kJ/mol
TGATGCACGTGTTGAG	0.293 kJ/mol
TGGGGCACGTGGTACT	-0.544 kJ/mol
GGTGGCACGTGTGTCC	-0.167 kJ/mol
TGTGCCACGTGAGGGA	0.377 kJ/mol
TGTGTCACGTGTATGG	0.335 kJ/mol
GTATTCACGTGTGTTA	1.09 kJ/mol
GTGGACACGTGTAGGC	0.126 kJ/mol
GGCGTCACGTGTCGGC	1.17 kJ/mol
AGTTGCACGTGATGAA	0.377 kJ/mol
GGGGGCACGTGGAAGG	0.0837 kJ/mol
CTAGGCACGTGGGTGT	-1.05 kJ/mol
GCCGTCACGTGTGTGG	0.335 kJ/mol
GTCAACACGTGATGGG	1.3 kJ/mol

Sequence	relative binding free energy
TTGTGCACGTGAGGTA	0.92 kJ/mol
TTTGTCACGTGACTGG	0.753 kJ/mol
GTTAACACGTGGGAGC	-0.0837 kJ/mol
GGGGGCACGTGACATT	0.335 kJ/mol
GGGCGCACGTGTAGTT	0.418 kJ/mol
AGAAACACGTGCGGGG	-0.293 kJ/mol
TGCATCACGTGATTGG	0.837 kJ/mol
AAAAGCACGTGTGTTG	-0.837 kJ/mol
GGGGCCACGTGTACGT	0.167 kJ/mol
CGTGGCACGTGATTGG	-0.628 kJ/mol
TCTGGCACGTGAGGGT	0.377 kJ/mol
CATTGCACGTGCGTGG	-0.293 kJ/mol
TTGGGCACGTGCGCCG	-0.962 kJ/mol
TATGGCACGTGAAAGT	0.795 kJ/mol
TACTTCACGTGAGGGT	1.38 kJ/mol
CTGTGCACGTGATAGG	-0.502 kJ/mol
CTGTACACGTGTGGGC	0.795 kJ/mol
TGGGGCACGTGAGGTC	0.753 kJ/mol
GGCGTCACGTGTCTGG	0.502 kJ/mol
TAGAGCACGTGGATGT	-0.46 kJ/mol
ATGGCCACGTGCCGGG	-0.753 kJ/mol
ATATGCACGTGTGTGT	-0.167 kJ/mol
GGGAGCACGTGGTAGA	-0.962 kJ/mol

Sequence	relative binding free energy
GCTGGCACGTGGGTAG	-0.377 kJ/mol
ACTGTCACGTGGAGGA	0.418 kJ/mol
GGGGTCACGTGGCCGT	-0.0418 kJ/mol
CCGGACACGTGTAGGG	0.628 kJ/mol
AAGGTCACGTGAGCTT	1.59 kJ/mol
CGGGGCACGTGTAGAT	0.502 kJ/mol
ATTTTCACGTGGCAGC	1.09 kJ/mol
TTTAGCACGTGGCATA	-0.795 kJ/mol
TGGGTCACGTGGCACG	0.0418 kJ/mol
GGATGCACGTGTGTTG	0.126 kJ/mol
TTGAGCACGTGTTGGA	0.251 kJ/mol
CGGAGCACGTGAAGTG	1.3 kJ/mol
TTGCTCACGTGGGGCT	0.669 kJ/mol
GGGACCACGTGAGTGT	0.711 kJ/mol
TTATACACGTGTAGAG	-0.0418 kJ/mol
AATAGCACGTGGTGTT	-0.879 kJ/mol
TCTAACACGTGTAGTT	0.502 kJ/mol
CGATTCACGTGGGATG	0.0837 kJ/mol
AATTGCACGTGGGGTT	-0.544 kJ/mol
TAGGTCACGTGGGCCA	-0.0837 kJ/mol
CATTTCACGTGGTGTT	0.209 kJ/mol
GGTGACACGTGTTGAA	0.377 kJ/mol
AAGTACACGTGTTTAA	0.377 kJ/mol
